From PubChem BioAssay AID1159614 (National Center for Advancing Translational Sciences (NCATS), 2016)
The whole screen tested about 45,000 compounds, of which about 65 (0.1%) were called active. Calls follow the shape of the dose curve; as a rule, active = well fitted activation curve with a large enough effect; inconclusive = small, poorly fitted or top-dose-only effect; inactive = no such curve, though single readings can be large or run the other way. This is one part of the list.

target: Galactocerebrosidase (Homo sapiens) (UniProt P54803); experiment: A Novel Cell-Based Assay to Identify Small Molecules for B -Galactocerebrosidase; conditions: 145M-Twi-hGALC-G270D cells (Twitcher mouse brain line with human GALC G270D), HMU-beta-Gal fluorescence, 48 h; series mostly up to 57.5 µM; activation: at the top concentration; also: 0% is about no effect; nearly all actives have a fitted effect of over 65% in size
Sequence of UniProt P54803 (P54803 whole entry, looked up): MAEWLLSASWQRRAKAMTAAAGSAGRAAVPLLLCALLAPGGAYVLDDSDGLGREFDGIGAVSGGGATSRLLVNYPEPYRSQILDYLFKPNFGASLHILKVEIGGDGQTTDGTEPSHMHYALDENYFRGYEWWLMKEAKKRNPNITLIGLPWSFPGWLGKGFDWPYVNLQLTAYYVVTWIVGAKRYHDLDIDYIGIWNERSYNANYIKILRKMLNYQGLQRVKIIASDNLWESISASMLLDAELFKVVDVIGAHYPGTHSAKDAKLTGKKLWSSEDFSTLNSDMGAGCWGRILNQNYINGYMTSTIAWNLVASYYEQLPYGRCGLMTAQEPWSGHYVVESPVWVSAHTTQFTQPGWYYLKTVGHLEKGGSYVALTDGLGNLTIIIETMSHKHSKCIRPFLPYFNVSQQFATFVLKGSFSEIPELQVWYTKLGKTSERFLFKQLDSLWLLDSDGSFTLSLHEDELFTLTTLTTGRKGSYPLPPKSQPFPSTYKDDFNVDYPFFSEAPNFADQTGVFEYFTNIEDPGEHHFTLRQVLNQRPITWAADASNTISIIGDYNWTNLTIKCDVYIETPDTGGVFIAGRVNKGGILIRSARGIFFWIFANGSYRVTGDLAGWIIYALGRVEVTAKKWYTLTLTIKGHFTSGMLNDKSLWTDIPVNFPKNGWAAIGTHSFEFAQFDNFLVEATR
Outline: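 Mutant human GALC (G270D), stably expressed in a Twitcher mouse brain cell line lacking endogenous GALC, is measured in live-treated cells via 6-hexadecanoylamino-4-methylumbelliferyl-β-galactoside hydrolysis (0.1 mM final, pH 5.2) with fluorescent detection.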

activation, inactive:
Cn1cnc(S(=O)(=O)N2CCC(C(=O)NCc3ccccc3)CC2)c1 -9.55%
Cc1ccc(Sc2c(C)nn(C(=O)COc3ccccc3)c2C)cc1 -23.3%
Cc1cccc(Cn2c(C)c(C)c3cc(C(=O)NCc4ccco4)ccc32)c1 -10.5%
Cn1c2ccccc2c2cnn(CC(=O)NCc3ccc(Cl)cc3)c(=O)c21 -14.6%
CC(=O)Nc1ccccc1OCc1cc(=O)n2c3c(sc2n1)CCCC3 -8.77%
COc1ccc2[nH]c(=O)c(CN(C(=O)c3cccc(Cl)c3)c3ccccc3OC)cc2c1 2.99%
COc1ccc(S(=O)(=O)NCCc2csc3nc(-c4ccc(Cl)cc4)nn23)cc1C -26.1%
CS(=O)(=O)N1CCc2cc(S(=O)(=O)NCc3ccccc3Cl)ccc21 -13.6%
Cc1ccc(Cn2nc(C)c(NC(=O)c3cc(-c4ccc(F)cc4)on3)c2C)cc1 -12.8%
Cc1nn(C(=O)c2ccccc2)c(C)c1Sc1ccc(Cl)cc1 -1.38%
CCOc1ccc(NC(=O)Cn2c(=O)oc3cc(S(=O)(=O)NC4CCCC4)ccc32)cc1 -41.4%
Cc1ccc(NC(=O)Cn2c(C)cc(C)c(C#N)c2=O)cc1 0.377%
COc1cc(NC(=O)Cn2ccn(Cc3ccccc3OC)c(=O)c2=O)cc(OC)c1 -8.44%
CCOC(=O)c1c(S(=O)(=O)N2CCCC(C(=O)N(C)Cc3ccccc3)C2)c(C)n(C)c1C (configuration not stated) -20.4%
Cc1cccc(-n2c(-c3ccco3)nc3c(cnn3-c3ccccc3C)c2=O)c1 27.6%
COc1ccccc1NC(=O)CSc1nc2ccccc2c(=O)n1CCC(=O)NC1CCCCC1 -12.2%
Cc1ccc(C(c2sc3nc(-c4ccco4)nn3c2O)N2CCOCC2)cc1 (configuration not stated) -9.17%
O=C(CN1CCN(Cc2ccc(F)cc2Cl)S1(=O)=O)Nc1ccc(F)cc1 -3.32%
Cc1ccccc1NC(=O)C1CCC(CNS(=O)(=O)c2ccc3c(c2)C(C)(C)C(=O)N3C)CC1 (configuration not stated) -10.2%
CCN(CC)CCOC(=O)C1(C2CCCCC2)CCCCC1 -18.4%
Cc1ccc(-n2ncc3c(N(C)Cc4ccccc4)ncnc32)cc1 -9.29%
Cc1cc(NS(=O)(=O)c2ccc(NC(=O)c3ccccc3F)cc2)nc(C)n1 0.417%
CCOc1ccc(CCNC(=O)c2cn(C)c3ccc(S(=O)(=O)N4CCOCC4)cc3c2=O)cc1OCC -3.85%
Oc1ccccc1 -11.5%
Cc1cccc(OCC(=O)NCC2(N3CCN(C)CC3)CCCCC2)c1C 0.294%
Cc1ccc(NC(=O)c2ccc3snnc3c2)cc1Cl -13.5%
CCc1ccc(S(=O)(=O)c2nnn(-c3ccc(F)cc3)c2N)cc1 -20.2%
CCCNC(=O)C(=O)NCC(c1ccc2c(c1)OCO2)N1CCOCC1 (configuration not stated) 3.44%
COc1ccc(OCc2ccc(-c3nc(C#N)c(N4CCC(C)CC4)o3)o2)cc1 -38.5%
COc1ccccc1N1CCN(S(=O)(=O)c2ccc3[nH]c4c(c3c2)CCCC4)CC1 -13.3%
CCC(=O)N1CCc2cc(Br)cc(S(=O)(=O)CCC(=O)N3CCN(c4ccccc4OC)CC3)c21 -16.7%
COc1ccc(-c2ccnc3[nH]n(-c4ccccc4)c(=O)c23)cc1 -16.5%
CCc1ccc(NC(=O)C2CCCN(S(=O)(=O)c3ccc4c(c3)CCCN4C(C)=O)C2)cc1 (configuration not stated) -18.8%
Cc1ccc(-n2ncc(C(=O)N3CCCCC3)c2C2CCN(C(=O)OC(C)(C)C)CC2)cc1C -5.34%
COc1ccc(C(=O)N2CC(=O)Nc3ccc(C)cc3C2c2ccccc2)c(OC)c1 (configuration not stated) -6.85%
COc1ccc(/C=C\c2onc(C)c2S(=O)(=O)N2CCC(C(=O)Nc3ccc(Cl)cc3)CC2)cc1 -13.2%
CCOc1cc(-c2nnc(SCC(=O)NCc3ccccc3)nc2-c2ccc(OC)c(OCC)c2)ccc1OC -4.24%
Cc1cc(C)n(-c2nc3ccccc3nc2Nc2ccc(C(C)C)cc2)n1 -11%
CCOCCCNC(=O)c1ccc2c(c1)NC(=O)C(CS(=O)(=O)Cc1ccc(F)cc1Cl)N2 (configuration not stated) 5.32%
Cc1cc2[nH]c(=O)c(=O)[nH]c2cc1S(=O)(=O)NCc1ccc(F)cc1 -5.81%
O=C(NC1CCCCCC1)C1CCN(C(=O)N2CCOc3ccc(Cl)cc32)CC1 -17.5%
Cc1ccc(C2=NN(CC(=O)NCCCN(CC(C)C)CC(C)C)C(=O)CC2)cc1 1.02%
CCCCc1nn2c(=O)cc(COC(=O)c3cccc(NC(=O)COc4ccccc4)c3)nc2s1 -30.2%
CCOc1cccc(NC(=O)C2CC(=O)N(C)C(=Nc3cccc(OC)c3)S2)c1 (configuration not stated) 16%
CCN(CCCNC(=O)CSc1cc(=O)n(C)c2ccccc12)c1ccccc1 -24.9%
O=C(Nc1ccc(Cl)cc1Cl)c1cc(S(=O)(=O)N2CCC3(CC2)OCCO3)ccc1F -15.2%
Cc1cc(C)c(NC(=O)C(C)n2c(=O)cc(C)c3c(C)nn(-c4ccccc4)c32)c(C)c1 (configuration not stated) -19%
COCCNC(=O)CCn1c(=O)c2cc(OC)c(OC)cc2n(CC(=O)Nc2ccc(F)c(Cl)c2)c1=O -20.3%
CC(=O)N1CCc2c(sc3c2c(=O)n(-c2ccccc2)c(=O)n3CC(=O)c2ccc(Cl)cc2)C1 -21.9%
O=C(NCc1cccc(F)c1)C1CCN(c2nc3ccccc3nc2C(F)(F)F)CC1 -20.6%
CCc1ccccc1Nc1nn2c(=O)c3ccc(C(=O)NCc4ccc(C)cc4)cc3nc2s1 -4.59%
Cc1cc(C)c(NC(=O)Cn2c(=O)n(-c3cccc(C(F)(F)F)c3)c(=O)c3c(C)c(C)sc32)c(C)c1 -23.9%
CC(=O)N1CCOc2cc(S(=O)(=O)NCc3ccccc3Cl)c(C)cc21 6.05%
O=C(O)c1ccc(Nc2nc3ccccc3c3nncn23)cc1 -5.04%
COc1ccccc1NC(=O)C(Cc1ccccc1)NS(=O)(=O)c1ccc2c(c1)CCN2C(C)=O (configuration not stated) -0.377%
CCN(C(=O)c1ccc2c(c1)N(Cc1cccc(Cl)c1)C(=O)c1ccccc1S2=O)c1ccccc1 (configuration not stated) -1.23%
CCC(=O)N1c2ccccc2CC1C(=O)NCCCN1CCN(c2cc(C)ccc2C)CC1 (configuration not stated) -7.3%
COc1ccc(-c2cc3nc(N)cc(=O)n3[nH]2)cc1 2.73%
CC(C)(C)C(=O)Nc1cc(-c2cccc(Br)c2)nn1-c1ccccc1 -16%
COCCCNC(=O)c1ccc(Cn2c(=O)c3ccccc3n(CC(N)=O)c2=O)cc1 -4.6%
CC(=O)Oc1ccccc1C(=O)Nc1ncc([N+](=O)[O-])s1 -9.03%
CCOC(=O)c1ccc(NC(=O)CSc2nc3ncc(Br)c(C)c3[nH]2)cc1 -19.1%
Cn1nc(-c2ccc(OCC(=O)Nc3cccc(C(F)(F)F)c3)cc2)c2ccccc2c1=O 2.08%
Cc1cccc(C)c1OCc1cc(=O)n2c(-c3ccccc3)csc2n1 -39.3%
Cc1ccc(C(=O)Nc2ccc(F)cc2)cc1S(=O)(=O)N1CCCCCC1 -24.2%
COc1ccc(NC(=O)c2cc(S(=O)(=O)N3CCOCC3)cn2C)cc1Cl -2.4%
Cc1ccc(C)c(CSc2nc3c([nH]c4ccccc43)c(=O)n2C)c1 -4.93%
O=C(NCCCc1nc2ccccc2n1Cc1ccc(F)cc1)C1CCCCC1 -4.05%
CC(C)c1ccc2oc(-c3ccc(Cl)c(NC(=O)c4cccs4)c3)nc2c1 -11.7%
CCOc1ccc(NC(=O)CCCc2nc(-c3cccc(OC)c3)no2)cc1 -12.1%
COc1cccc2c1cc1c(=O)n(CC(=O)N3CCN(c4ccccc4F)CC3)nc(C)n12 -2.33%
O=C1CS(=O)(=O)C2(C(=O)Nc3ccccc32)N1c1cccc(Cl)c1 (configuration not stated) -25%
Cc1ccc(CNC(=O)c2sc3nc(C)cc(C)c3c2-n2cccc2)cc1 -10.3%
O=C(NCCc1nc2ccccc2n1Cc1ccccc1)c1ccco1 -17.5%
Cc1ccc(NS(=O)(=O)c2cnc(N)nc2)c(C)c1 -2.08%
CCN(CC)CCNC(=O)C1CCN(c2cc(C)nc3c(-c4ccc(Cl)cc4)c(C)nn23)CC1 10.4%
Cc1ccc(CN2CCCn3nc(C(=O)NCc4ccc(OC(C)C)cc4)cc3C2=O)cc1 -25.2%
CCN(CC)CCNC(=O)c1cc(-c2ccc(Br)s2)nc2ccccc12 -11.8%
Cc1nc(-n2nc(C)c(Cc3ccc4c(c3)OCO4)c2C)sc1C(=O)Nc1cccc(Cl)c1 -3.34%
CCc1nn(CC(=O)Nc2cc(C)cc(C)c2)c(=O)c2cc3sccc3n12 -22.6%
CSc1ccc(CCNC(=O)CCc2c(C)nc3c(c(C)nn3-c3ccc(C)c(C)c3)c2C)cc1 -15.7%
COc1ccc2nc(NC(=O)c3nc(S(=O)(=O)Cc4ccccc4)ncc3Cl)sc2c1 -19.9%
CCOC(=O)c1cccc(NC(=O)c2ccc3nc(C(C)C)oc3c2)c1 -11.5%
Cc1ccc(NC(=O)CSc2n[nH]c(-c3ccc(F)cc3)n2)cc1F -19.7%
CCOc1ccccc1NC(=O)N1CCN(C)c2ncccc21 -30.4%
COc1cc(-c2noc(CN3CCN(c4cccc(Cl)c4)CC3)n2)cc(OC)c1OC -14%
CSc1cccc(NC(=O)CC(c2cccs2)N2Cc3ccccc3C2=O)c1 (configuration not stated) -35.5%
O=Cc1ccccc1C=O -16.1%
COc1ccc(Cn2c(=O)n(-c3ccccc3C)c(=O)c3c4c(sc32)CN(C(C)=O)CC4)cc1 -16.6%
CCCN(CCC)CCNC(=O)c1cc2c(-c3ccc(Cl)cc3)nn(C)c2s1 0.874%
O=C(Nc1cccc(Cl)c1Cl)c1cc2nc(-c3ccc(Cl)cc3)cc(C(F)(F)F)n2n1 -6.96%
CCC(C(=O)Nc1nnc2n1CCS2)c1ccccc1 (configuration not stated) -16.6%
CCOC(=O)c1c(C)sc(-c2c(-c3cc(C)ccc3C)[nH]c3c2c(=O)n(C)c(=O)n3C)c1O -19.2%
Cc1ccc(NC(=O)CCn2nc(C)c(S(=O)(=O)N3CCCCC3)c2C)cc1Cl -15%
CCOc1ccc(N(CC(=O)Nc2cc(C)ccc2C)S(=O)(=O)c2c(C)[nH]c(=O)[nH]c2=O)cc1 -13.9%
COc1ccc(NC(=O)N2CCc3c(sc4c3CCCC4)C2c2ccccc2OC)cc1 (configuration not stated) -7.52%

Potency, inactive:
CCCCOCCOCCOCc1cc2c(cc1CCC)OCO2
